Measured values published in patent US20250205375A1, “HER3 RADIOIMMUNOTHERAPY FOR THE TREATMENT OF SOLID CANCERS” (ACTINIUM PHARMACEUTICALS, INC., priority 2023, published 2025).

Columns and labels:
[1] = tested on: ACHN human renal cancer cells xenograft; assay: ACHN human renal cell carcinoma xenograft in Balb/c nude mice, tumor growth; type: in vivo, mouse; details: 0.4 μCi on day 1 and 0.2 μCi on day 21, intravenously
Procedure: In more detail, the experiment was performed as follows. Female Balb/c nude mice were subcutaneously injected with 5×10^6 ACHN human renal cancer cells (ATCC; CRL-1611). […] Drug treatments were administered orally for vehicle (PBS) and tivozanib or intravenously for unlabeled/unconjugated HER3 monoclonal antibody (HER3), HER3-ARC (Actinium-225 labeled HER3 antibody) and HER3-ADC (patritumab deruxtecan). Single agents or combinations were dosed as follows: vehicle (daily for 14 days), unlabeled/unconjugated HER3 antibody (100 μg on day 1), HER3-ADC (3 mg/kg on day 1 and 21), HER3-ARC (0.4 μCi on day 1 and 0.2 μCi on day 21), tivozanib (0.3 mg/kg daily for 14 days), tivozanib (0.3 mg/kg daily for 14 days) with HER3-ARC (0.4 μCi on day 16), and HER3-ARC (0.4 μCi on day 1) with tivozanib (0.3 mg/kg starting day 3, daily for 14 days). […] HER3-ARC was always administered in a total protein dose of 50 μg irrespective of the radiation dose. Tumor volumes were measured twice weekly by caliper and body weights were monitored. The mean tumor volume for each group was analyzed and graphed using GraphPad Prism software and statistical analysis is performed with Tukey's multiple comparisons test.

[2] = tested on: 22RV1 cell line xenograft; assay: Human 22RV1 prostate cancer cell line xenograft mouse model, tumor growth; type: in vivo
Text: FIG. 16 is a graph showing the effects on tumor growth in a human 22RV1 prostate cancer cell line xenograft mouse model for ^225Ac-labeled HER3 antibody, singly, doubly or triply dosed, versus a HER3 ADC and other controls. The doses and dose schedule of the various agents and controls are the same here as described above for the experiment of FIG. 15.

[3] = tested on: OVCAR5 cell line xenograft; assay: Human OVCAR5 cell line xenograft ovarian cancer mouse model, tumor growth; type: in vivo; details: single dose of 0.2 μCi or 0.4 μCi on day 1
Procedure: (§1) FIG. 17A is a graph showing the effects on tumor growth in a human OVCAR5 cell line xenograft ovarian cancer mouse model for ^225Ac-labeled HER3 antibody, in a single dose of 0.2 μCi or 0.4 μCi, versus standard of care Bevacizumab (10 mg/kg), ^225Ac-labeled non-specific IgG control (0.4 μCi), and naked (cold) HER3 mAb control (10 μg). All agents/controls were dosed on day 1.
as §1, with “17B” for “17A”, “^177Lu-labeled” for “^225Ac-labeled”, “200” for “0.2”, “400” for “0.4”, “(400” for “(0.4”

[4] = tested on: DU145 cell line xenograft; assay: Human DU145 cell line xenograft prostate cancer mouse model, tumor growth; type: in vivo
Procedure: FIG. 15 is a graph showing the effects on tumor growth in a human DU145 cell line xenograft prostate cancer mouse model for ^225Ac-labeled HER3 ARC, singly, doubly or triply dosed, and controls including vehicle only, HER3 ADC (patritumab […] HER3-DXd), non-specific IgG ADC (IgG deruxtecan), and ^225Ac-labeled non-specific IgG (in a single dose or in two doses). […] IgG deruxtecan), and naked (cold) HER3 mAb control (50 μg). Except where otherwise specified, all agents/controls were dosed on day 1.

B1: HER3-ARC (conjugate)
heavy: QVQLVESGGGLVKPGGSLRLSCAASGFTFSDYAMSWIRQAPGKGLEWVSTISDGGTYTYYPDSVKGRFTISRDNAKNSLYLQMNSLRAEDTAVYYCAREWGDYDGFDYWGQGTLVTVSS[not shown - human IgG1 constant region]
light: DIQMTQSPSSLSASVGDRVTITCRASQEISGYLSWYQQKPGKAPKRLIYAASTLDSGVPSRFSGSGSGTEFTLTISSLQPEDFATYYCLQYDSYPYTFGQGTKLEIKRTVAAPSVFIFPPSDEQLKSGTASVVCLLNNFYPREAKVQWKVDNALQSGNSQESVTEQDSKDSTYSLSSTLTLSKADYEKHKVYACEVTHQGLSSPVTKSFNRGEC
In the case of B1, the “tumor growth (mean tumor volume)” value [1] is reported as “greatest suppression of tumor growth among all arms”, the tumor growth ([2]; 0.2 μCi on each of days 1, 7 and 15) is reported as “very substantially inhibited tumor growth versus the HER3-ADC and other control arms but not to the extent as the singly and doubly dosed” and the tumor growth ([2]; 0.4 μCi on day 1 and 0.2 μCi on day 15) is reported as “comparably profound inhibition of tumor growth”. For the same molecule, the tumor growth ([2]; dosed singly at 4 μCi on day 1) was “comparably profound inhibition of tumor growth”, the “antitumor efficacy (tumor growth)” value [3] was “potent antitumor efficacy” and the tumor growth ([4]; dosed twice: 0.4 μCi on day 1 followed by 0.2 μCi on day 15) was “comparably profound inhibition of tumor growth”. The tumor growth ([4]; single dose 0.4 μCi on day 1) was “performing similarly but not as well by later time points” and the tumor growth ([4]; triply dosed: 0.2 μCi on days 1, 7 and 16) was “comparably profound inhibition of tumor growth”.
